Test results: PubChem BioAssay AID1745853 (National Center for Advancing Translational Sciences (NCATS), 2022)
Some of the results follow. Further columns of the screen follow, without active or inactive calls.

Experiments:
Assay in all cases: Primary Screen for Target Class Profiling of Small Molecule Inhibitors of Methyltransferases
[1] = molecular target: Glycine N-methyltransferase (Homo sapiens) (UniProt Q14749); conditions: purified enzyme, MTase-Glo SAH luminescence; measured here: GNMT inhibition; at 40 µM; stronger effect = lower value
Method in brief: (§1)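 Each enzyme was reacted with SAM and its substrate, with compounds tested once at 40 uM; SAH formed was read by MTase-Glo luminescence.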

[2] = molecular target: Guanidinoacetate N-methyltransferase (Homo sapiens) (UniProt Q14353); conditions: purified enzyme, MTase-Glo SAH luminescence; measured here: GAMT inhibition; at 40 µM; stronger effect = lower value
Method in brief: as §1

[3] = molecular target: Histamine N-methyltransferase (Homo sapiens) (UniProt P50135); conditions: purified enzyme, MTase-Glo SAH luminescence; measured here: HNMT inhibition; at 40 µM; stronger effect = lower value
Method in brief: as §1

[4] = molecular target: Nicotinamide N-methyltransferase (Homo sapiens) (UniProt P40261); conditions: purified enzyme, MTase-Glo SAH luminescence; measured here: NNMT inhibition; at 40 µM; stronger effect = lower value
Method in brief: as §1

[5] = molecular target: Phenylethanolamine N-methyltransferase (Homo sapiens) (UniProt P11086); conditions: purified enzyme, MTase-Glo SAH luminescence; measured here: PNMT inhibition; at 40 µM; stronger effect = lower value
Method in brief: as §1
% is scaled to controls: 0 for no effect and ±100 for the full control effect.

SMILES | activity change, negative = inhibition [1] | activity change, negative = inhibition [2] | activity change, negative = inhibition [3] | activity change, negative = inhibition [4] | activity change, negative = inhibition [5]
CCc1ccc(C2c3cccn3-c3sc4c(c3CN2C(=O)Nc2cccc(OC)c2)CCCC4)cc1 (stereo not given) | -14.1% | -0.167% | -1.05% | -11.6% | -3.58%
COc1ccc(Cc2nccc3cc(OC)c(OC)cc23)cc1OC | -47.4% | -1.47% | -4.64% | -12.6% | -3.64%
Cc1noc(C)c1S(=O)(=O)N(C)C1CCOc2ccccc21 (stereo not given) | -6.24% | -7.59% | -2.45% | -46.2% | -8.48%
COc1cccc(CN2C(=O)c3cc4ccccc4n3CC2(C)C(=O)NCCCOC(C)C)c1 (stereo not given) | 8.96% | 0.914% | 10.4% | 14.5% | 2.82%
CCC[C@@H]1O[C@@H]2C[C@H]3[C@@H]4CCC5=CC(=O)C=C[C@]5(C)[C@H]4[C@@H](O)C[C@]3(C)[C@]2(C(=O)CO)O1 | 4.63% | 8.03% | 5.47% | -14.7% | 2.23%
Cc1cnc(-c2ccccc2)n1C1CCN(S(=O)(=O)c2cccc(F)c2)CC1 | -2.82% | 1.88% | 2.96% | -4.5% | 2.86%
CCOc1cccc(C2c3cccn3-c3sc4c(c3CN2C(=O)Nc2ccc(C)c(F)c2)CCCC4)c1 (stereo not given) | -4.18% | 4.61% | -4.07% | -7.43% | 0.637%
COc1ccccc1NC(=O)c1sc(=S)n2c1[nH]c(=O)c1ccc(Cl)cc12 | -2.12% | 4.57% | 5.42% | -3.68% | -19.6%
CCC(C)NC(=O)c1ccc2c(=O)n(CC(C)C)c3nn(CC(=O)c4ccc(OC)cc4)c(=O)n3c2c1 (stereo not given) | 2.23% | 0% | 8.61% | 1.01% | 1.42%
Cc1nc2c(OCC(=O)OC(C)(C)C)cccn2c(=O)c1-c1cc(C)n(-c2cccc(F)c2)n1 | -9.07% | -9.77% | -12.6% | -23% | -13.9%
COC(=O)c1ccccc1NC(=O)Cn1nc2n(c1=O)CCCCC2 | -1.08% | -1.48% | 1.96% | -5.95% | 0.588%
O=C(NCC1CN(CC2CC2)CC12CN(c1ccccc1)C2)Nc1ccccc1 (stereo not given) | -8.79% | -6.21% | -17.5% | -8.77% | -4.1%
COc1ccc(S(=O)(=O)N2CCc3c(C(=O)NCc4ccncc4)cccc32)cc1 | -9.94% | -4.42% | -4.88% | -11.3% | -5.42%
COc1ccc(CC(=O)Nc2ccc(N3CCC(NCCc4c(C)n[nH]c4C)CC3)cc2)cc1 | -4.08% | -1.52% | -7.44% | -7.29% | 1.12%
CC1(C(=O)NC2CCCC2)Cn2c(c(-n3cccc3)c3ccccc32)C(=O)N1Cc1ccccn1 (stereo not given) | 5.01% | 3.81% | 4.34% | -36.3% | 2.6%
Cc1ccc(N2C(=O)c3cc4occc4n3CC2(C)C(=O)NC2CCCCCCC2)cc1 (stereo not given) | 3.38% | 8.62% | 10.4% | 6.8% | 1.09%
Cc1ccccc1NC(=O)Nc1ccc(CC(=O)N(C)[C@@H](CC(C)C)C(=O)NCC[C@H](NC(=O)[C@@H]2CCCN2S(=O)(=O)c2cc(Cl)cc(Cl)c2)C(=O)O)cc1 | -1.56% | 27.8% | 2.21% | -7.82% | -2.5%
CC1(C(=O)O)CC[C@]2(C(=O)OC3OC(CO)C(O)C(O)C3O)CC[C@]3(C)C(=CCC4[C@@]5(C)CC[C@H](OC6OCC(O)C(O)C6OC6OC(CO)C(O)C(O)C6O)C(C)(C)C5CC[C@]43C)C2C1 (stereo not given in full) | 1.17% | 2.42% | 2.9% | -8.74% | 4.86%
Cc1ccccc1CCN1C(=O)c2ccc(-c3ccco3)n2CC1(C)C(=O)NC1CCCCCCC1 (stereo not given) | -14.7% | 1.15% | -10% | -14.7% | -1.3%
O=C(Nc1cccc(Cl)c1)N1CCn2cccc2C1Cc1ccccc1 (stereo not given) | -10.1% | 0% | 4.72% | -0.213% | -2.1%
O=C(Cc1ccc(-c2ccccc2)cc1)NC1CCC1 | 2.68% | -1.65% | 8.34% | -11.3% | 1.81%
COc1ccc(CNC(=O)c2ccc(CN3C(=O)NC4(CCOCC4)C3=O)cc2)cc1 | -3.21% | -9.88% | -2.83% | -3.24% | -0.494%
Cc1ccc(N2C(=O)c3cc4occc4n3CC2(C)C(=O)NC2CCCC(C)C2C)c(C)c1 (stereo not given) | -4.8% | -0.982% | 8.3% | -3.35% | -5.05%
NCC(CNc1nc(Nc2cccc(NC(=O)N3CCCC3)c2)ncc1I)C(=O)c1cccs1 (stereo not given) | -31.7% | -2.36% | -66.5% | -32.4% | -7.29%
CC(=O)N1Cc2ccccc2NC(=O)C12CCNCC2 | -3.95% | -9.51% | -3.52% | -13.3% | -14.1%
O=S(=O)(c1cc(F)ccc1F)N1CCC(n2cc(CCCO)nn2)CC1 | 0.524% | -1.92% | -0.232% | 0.423% | -5.56%
CCCn1c(=O)c2ccc(C(=O)NCC(C)C)cc2n2c(SCC(=O)Nc3ccc(C)cc3)nnc12 | 0.147% | 0% | 4.04% | -6.17% | 5.41%
O=C(c1ccc2ccccc2n1)N1C[C@@H](CO)[C@H](c2ccncc2)C1 | -6.35% | -2.27% | -1.37% | -1.77% | -7.63%
